This is an account of results in patent publication US20210213145A1 (TAYU HUAXIA BIOTECH MEDICAL GROUP, published 2021).

For the assay, the target named is hPD-L1 (form in the Octet assay of Example 3 not stated) (human, UniProt Q9NZQ7 partial chain, limits assumed). Kind of assay: BLI, Fortebio Octet; format not stated. On the technique in general: Biolayer interferometry detects binding as a change in optical thickness at a sensor tip.
Chain of UniProt Q9NZQ7 (Q9NZQ7 19-238 limits assumed): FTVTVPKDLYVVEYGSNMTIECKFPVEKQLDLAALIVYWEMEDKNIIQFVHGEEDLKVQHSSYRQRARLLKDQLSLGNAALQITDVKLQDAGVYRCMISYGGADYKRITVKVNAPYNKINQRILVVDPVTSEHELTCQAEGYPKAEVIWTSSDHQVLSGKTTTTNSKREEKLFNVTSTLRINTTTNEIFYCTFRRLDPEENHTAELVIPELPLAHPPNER

B1: anti-PD-L1 scFv-hFc Wt (Fc fusion)
chain: QVQLVQSGAEVKKPGASVKVSCKASGFNIKDTYMYWVRQAPGQGLEWMGRIDPANDNTKYAQKFQGRVTITADTSTSTAYMELSSLRSEDTAVYYCARAKNLLNYFDYWGQGTLVTVSSGSTSGSGKPGSGEGSTKGDIQMTQSPSSLSASVGDRVTITCRASQEISGYLSWLQQKPGKAPKRLIYATSTLQSGVPSRFSGSRSGTDYTLTISSLQPEDFATYYCLQYAIYPLTFGQGTKLEIKR[human IgG1 Fc skipped]
notes: scFv (VH-linker-VL), then hinge and wild type human IgG1 CH2-CH3; Made in ExPi 293 cells and purified on protein G; also called hPD-L1 scFv-hFc wt; scFv-HuFc(Wt)
Take B1: the equilibrium dissociation constant (Kd) was determined as 0.348 nM, the koff was 0.000243 s⁻¹ and the kon worked out at 698000 M⁻¹ s⁻¹.

B2: anti-PD-L1 scFv-hFc Mt (Fc fusion)
chain: QVQLVQSGAEVKKPGASVKVSCKASGFNIKDTYMYWVRQAPGQGLEWMGRIDPANDNTKYAQKFQGRVTITADTSTSTAYMELSSLRSEDTAVYYCARAKNLLNYFDYWGQGTLVTVSSGSTSGSGKPGSGEGSTKGDIQMTQSPSSLSASVGDRVTITCRASQEISGYLSWLQQKPGKAPKRLIYATSTLQSGVPSRFSGSRSGTDYTLTISSLQPEDFATYYCLQYAIYPLTFGQGTKLEIKR[human IgG1 Fc with changes skipped]
notes: As scFv-hFc Wt, with H310A and H435Q in CH2-CH3; also called hPD-L1 scFv-hFc Mt; scFv-HuFc(Mt)
Regarding B2, the Kd stood at 0.232 nM, the koff came to 0.000385 s⁻¹ and the kon was found to be 1.66e+06 M⁻¹ s⁻¹.

Usually Kd stands for the free concentration of one partner at which half of the binding sites on the other are occupied at equilibrium, for simple one-to-one binding. Broadly, the koff is a measure of how fast the partners let go of each other. Read a low koff as a long-lived complex. As a reminder, the kon is a measure of how fast the partners come together. Read a low kon as slower complex formation.
